The other results are listed elsewhere or left out.
Tests used:
HSkMC = human skeletal muscle cells; test: cytotoxicity call (relative viability < 0.9); settings: 10 µM
HepG2 = test: cytotoxicity call (relative viability < 0.9); settings: 10 µM
S. aureus RN4220 = test: growth inhibition call (relative growth <= 0.2); settings: 50 µM

C[C@@H]1CN([C@H](C)CO)C(=O)c2cc(NC(=O)C3CC3)ccc2O[C@H]1CN(C)C(=O)NC1CCCCC1
inactive: cytotoxicity call (HSkMC) | cytotoxicity call (HepG2) | growth inhibition call (S. aureus RN4220)

CC(C)NC(=O)Nc1ccc2c(c1)C(=O)N([C@H](C)CO)C[C@@H](C)[C@@H](CN(C)CC1CCCCC1)OCCCC[C@H](C)O2
inactive: cytotoxicity call (HSkMC) | cytotoxicity call (HepG2) | growth inhibition call (S. aureus RN4220)

COC[C@H]1CNN1C(=O)Nc1c(C)noc1C
inactive: cytotoxicity call (HSkMC) | cytotoxicity call (HepG2) | growth inhibition call (S. aureus RN4220)

Cc1noc(C)c1NC(=O)Nc1ccc2c(c1)C(=O)N([C@H](C)CO)C[C@@H](C)[C@@H](CN(C)Cc1ccc3c(c1)OCO3)OCCCC[C@H](C)O2
inactive: cytotoxicity call (HSkMC) | cytotoxicity call (HepG2) | growth inhibition call (S. aureus RN4220)

Cc1noc(C)c1S(=O)(=O)Nc1ccc2c(c1)CC(=O)N([C@@H](C)CO)C[C@@H](C)[C@@H](CN(C)Cc1ccc3c(c1)OCO3)O2
inactive: cytotoxicity call (HSkMC) | cytotoxicity call (HepG2) | growth inhibition call (S. aureus RN4220)

CN(C)CCCNC(=O)C[C@@H]1CC[C@@H]2[C@@H](COc3ccc(NC(=O)NC4CCCC4)cc3C(=O)N2C)O1
inactive: cytotoxicity call (HSkMC) | cytotoxicity call (HepG2) | growth inhibition call (S. aureus RN4220)

C[C@@H]1CCCCO[C@H](CN(C)C(=O)Nc2ccccc2)[C@H](C)CN([C@@H](C)CO)C(=O)c2cc(NS(=O)(=O)c3ccc(F)cc3)ccc2O1
inactive: cytotoxicity call (HSkMC) | cytotoxicity call (HepG2) | growth inhibition call (S. aureus RN4220)

C[C@H](CO)N1C[C@H](C)[C@H](CN(C)Cc2ccc(-c3ccccc3)cc2)Oc2ccc(NS(=O)(=O)c3ccccc3)cc2C1=O
inactive: cytotoxicity call (HSkMC) | cytotoxicity call (HepG2) | growth inhibition call (S. aureus RN4220)

C[C@@H]1CCCCO[C@@H](CN(C)Cc2ccc(C(=O)O)cc2)[C@@H](C)CN([C@@H](C)CO)C(=O)c2cc(NS(=O)(=O)c3cccs3)ccc2O1
inactive: cytotoxicity call (HSkMC) | cytotoxicity call (HepG2) | growth inhibition call (S. aureus RN4220)

Cn1cnc2c1c(=O)[nH]c(=O)n2C
inactive: cytotoxicity call (HSkMC) | cytotoxicity call (HepG2) | growth inhibition call (S. aureus RN4220)

C[C@H]1CN([C@@H](C)CO)C(=O)Cc2cc(NC(=O)NC3CCCCC3)ccc2O[C@@H]1CN(C)Cc1ccc(C(=O)Nc2ccccc2N)cc1
inactive: cytotoxicity call (HSkMC) | cytotoxicity call (HepG2) | growth inhibition call (S. aureus RN4220)

COc1ccc(cc1)CN1C[C@]2(CN(C2)S(=O)(=O)c2cn(cn2)C)c2c([nH]c3cc(ccc23)OC)[C@H]1CO
inactive: cytotoxicity call (HSkMC) | cytotoxicity call (HepG2) | growth inhibition call (S. aureus RN4220)

CC(C)NC(=O)N(C)C[C@H]1OCCCC[C@@H](C)Oc2ccc(NC(=O)Nc3ccc(C(F)(F)F)cc3)cc2C(=O)N([C@@H](C)CO)C[C@H]1C
inactive: cytotoxicity call (HSkMC) | cytotoxicity call (HepG2) | growth inhibition call (S. aureus RN4220)

Cc1cc(=O)n(-c2ccccc2)n1C
inactive: cytotoxicity call (HSkMC) | cytotoxicity call (HepG2) | growth inhibition call (S. aureus RN4220)

Cc1noc(C)c1NC(=O)N(C)C[C@@H]1Oc2ccc(NC(=O)C3CC3)cc2C(=O)N([C@H](C)CO)C[C@@H]1C
inactive: cytotoxicity call (HSkMC) | cytotoxicity call (HepG2) | growth inhibition call (S. aureus RN4220)

Cc1ccc(S(=O)(=O)N(C)C[C@@H]2OCCCC[C@H](C)Oc3ccc(NC(=O)Cc4ccccc4)cc3C(=O)N([C@H](C)CO)C[C@H]2C)cc1
inactive: cytotoxicity call (HSkMC) | cytotoxicity call (HepG2) | growth inhibition call (S. aureus RN4220)

O=C1CC[C@H](C(=O)N2CCCCC2)N1
inactive: cytotoxicity call (HSkMC) | cytotoxicity call (HepG2) | growth inhibition call (S. aureus RN4220)

Cc1noc(C)c1NC(=O)N(C)C[C@@H]1OCCCC[C@H](C)Oc2ccc(NS(=O)(=O)c3cccs3)cc2C(=O)N([C@@H](C)CO)C[C@H]1C
inactive: cytotoxicity call (HSkMC) | cytotoxicity call (HepG2) | growth inhibition call (S. aureus RN4220)

COc1ccc(NC(=O)Nc2ccc3c(c2)C(=O)N([C@@H](C)CO)C[C@H](C)[C@H](CN(C)Cc2ccc(C(F)(F)F)cc2)OCCCC[C@@H](C)O3)cc1
inactive: cytotoxicity call (HSkMC) | cytotoxicity call (HepG2) | growth inhibition call (S. aureus RN4220)

C[C@@H]1CCCCO[C@@H](CN(C)C(=O)NC2CCCCC2)[C@H](C)CN([C@@H](C)CO)C(=O)c2cc(NC(=O)Nc3ccc(C(F)(F)F)cc3)ccc2O1
inactive: cytotoxicity call (HSkMC) | cytotoxicity call (HepG2) | growth inhibition call (S. aureus RN4220)

C[C@H]1CN([C@@H](C)CO)C(=O)c2cc(NC(=O)Nc3ccc(C(F)(F)F)cc3)ccc2O[C@@H]1CN(C)Cc1ccc(Cl)c(Cl)c1
inactive: cytotoxicity call (HSkMC) | cytotoxicity call (HepG2) | growth inhibition call (S. aureus RN4220)

C[C@@H]1CN([C@H](C)CO)C(=O)c2cc(NS(C)(=O)=O)ccc2O[C@@H](C)CCCCO[C@@H]1CN(C)C(=O)c1ccncc1
inactive: cytotoxicity call (HSkMC) | cytotoxicity call (HepG2) | growth inhibition call (S. aureus RN4220)

CCCC(=O)Nc1ccc(OCC(O)CNC(C)C)c(C(C)=O)c1.Cl (centres undefined)
inactive: cytotoxicity call (HSkMC) | cytotoxicity call (HepG2) | growth inhibition call (S. aureus RN4220)

C[C@H]1CN([C@@H](C)CO)C(=O)Cc2cc(NC(=O)Nc3ccc4c(c3)OCO4)ccc2O[C@H]1CN(C)Cc1ccc(-c2ccccc2)cc1
inactive: cytotoxicity call (HSkMC) | cytotoxicity call (HepG2) | growth inhibition call (S. aureus RN4220)

C[C@@H]1CN([C@H](C)CO)C(=O)c2cccc(NS(=O)(=O)c3cn(C)cn3)c2O[C@H]1CN(C)CC1CC1
inactive: cytotoxicity call (HSkMC) | cytotoxicity call (HepG2) | growth inhibition call (S. aureus RN4220)

C[C@H](CO)N1C[C@H](C)[C@H](CN(C)S(C)(=O)=O)Oc2c(NC(=O)c3cnccn3)cccc2C1=O
inactive: cytotoxicity call (HSkMC) | cytotoxicity call (HepG2) | growth inhibition call (S. aureus RN4220)

Cc1noc(C)c1NC(=O)Nc1ccc2c(c1)C(=O)N([C@@H](C)CO)C[C@H](C)[C@@H](CN(C)Cc1ccc(Cl)c(Cl)c1)O2
inactive: cytotoxicity call (HSkMC) | cytotoxicity call (HepG2) | growth inhibition call (S. aureus RN4220)

O=C(c1ccc(S(=O)(=O)N2CCOCC2)o1)N1CCC(O)CC1
inactive: cytotoxicity call (HSkMC) | cytotoxicity call (HepG2) | growth inhibition call (S. aureus RN4220)

— the antibiotic and cytotoxicity screens of Wong et al. (2023)
